# The full ranking holds about 33,000 sequences; the median of “E-score (-0.5 to 0.5)” is about -0.017, and the highest 2% start at about 0.3. The list shows a part of the results.
# Target: T1, Sut1 (UniProt P53032)
# T1 sequence: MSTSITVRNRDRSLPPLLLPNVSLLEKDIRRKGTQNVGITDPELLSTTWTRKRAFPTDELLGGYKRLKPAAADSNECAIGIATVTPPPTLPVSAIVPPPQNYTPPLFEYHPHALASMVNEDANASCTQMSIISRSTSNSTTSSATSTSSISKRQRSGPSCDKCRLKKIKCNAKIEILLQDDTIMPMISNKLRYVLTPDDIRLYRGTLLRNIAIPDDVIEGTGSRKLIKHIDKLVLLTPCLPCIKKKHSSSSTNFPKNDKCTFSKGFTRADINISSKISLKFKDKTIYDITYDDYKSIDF
# Assay: PBM E-score (8-mer binding enrichment) (E-score (-0.5 to 0.5)); higher = stronger / more preferred TF binding; most listed sequences are background and not binding sites
# Details: protein concentration: 200 nM; construct: GST-full length
# How it was run: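 Full-length yeast transcription factors or their DNA-binding domains, GST-tagged and expressed with PURExpress, were applied at about 100-200 nM to universal all-10-mer Agilent arrays. These arrays had been made double-stranded by primer extension on fresh or once-stripped slides. Detection used fluorescent anti-GST, normalisation used masliner, and E-scores for ungapped eight-base words pooled with reverse complements came from the Universal PBM Analysis Suite.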
row,Sequence,PBM E-score
1,AACTGGGA,-0.095
2,CTGCATTC,0.0297
3,AAGTCGTC,-0.133
4,CAACACAC,0.00259
5,TACCCCTA,-0.136
6,GGTCGGAC,0.259
7,CGCAAGCG,-0.256
8,AGCCGTTC,-0.0942
9,ATATCAAA,0.212
10,TAGATCTA,0.0822
11,AGTGTAGA,-0.106
12,CGCAGGGA,-0.229
13,CAGGCCTG,0.0399
14,ACTCGATG,0.0252
15,CCTCAGGA,-0.132
16,CCTTCTGA,0.112
17,ATCTAGAA,0.16
18,ACTCTTTC,0.111
19,ACTGGGTG,-0.266
20,GCTCGCAA,-0.101
21,AAAACCCA,0.151
22,CTTCGTAA,0.146
23,CCTAATAA,-0.0105
24,CATCTAGG,-0.0891
25,CCCCAAAA,-0.00242

row,Sequence,PBM E-score
1,ATATACGG,0.26
2,ATGATAAA,0.233
3,ATAAGCCC,-0.0621
4,GGATACGA,-0.134
5,TCTGTAAA,0.0742
6,ACCAAGGT,0.111
7,ACCATCCT,0.0495
8,CGCTGGGA,-0.192
9,AAATATCG,0.226
10,AGTGTTGG,0.0351
11,TAGGAAGA,-0.043
12,CGAGTACG,-0.191
13,CAACTACG,0.0309
14,GAGGCGCC,-0.112
15,CGTTGTTA,0.181
16,CACCCCAC,-0.0615
17,CGCACGCA,-0.0636
18,AGCTCGGA,0.336
19,GTATTTCA,0.191
20,CAGGGACA,-0.228
21,TATGCGGA,0.142
22,ACGGATTC,0.0978
23,AAGTCTCT,-0.167
24,AGACGGGC,-0.089
25,CAATGTGA,0.0926

row,Sequence,PBM E-score
1,GAGCTCAC,-0.207
2,ATCTACAG,0.0333
3,GCTGGCCA,-0.136
4,ACAGACAA,0.294
5,CCTACTTA,-0.0659
6,CACGGGCG,-0.294
7,CTAGGGTC,-0.225
8,AGTTGCTA,0.13
9,CAGACACA,-0.00031
10,ATCGGTAA,0.159
11,AGGCACAG,-0.0675
12,AGCCTTGA,0.0961
13,CGAGGCAA,0.0208
14,CGAATAAA,0.172
15,TCACTCGA,-0.0419
16,AACAGCGT,0.102
17,AATCAGCT,-0.0963
18,CAAACCCC,0.122
19,CGTGACGC,-0.121
20,GATAATGC,0.0761
21,ATTAACTG,0.239
22,GATCGGAA,0.159
23,GAATAAGC,0.0408
24,ACAAAGAA,0.186
25,TGCTAGAA,0.0342

row,Sequence,PBM E-score
1,CTGAGGCC,-0.104
2,GTCTCCTA,-0.156
3,AACGCCTT,0.0207
4,ATTTGGCC,-0.12
5,CAGCTCAA,0.0662
6,CGGCGTTA,-0.0139
7,ATCATAAT,0.243
8,CTCGGTTC,0.015
9,AGAGTGCT,0.0233
10,AAGTATTC,0.0806
11,ACAGCTCA,-0.0906
12,TACGTAGA,-0.0486
13,ATAGACAG,0.0775
14,CATTCCGC,0.0668
15,GGATATAC,0.197
16,AAATCACC,0.173
17,AATCCGCT,-0.0383
18,GTCAAAGA,0.0425
19,GCACAGGA,-0.207
20,AACTTGAA,0.157
21,CTTTCTGA,0.103
22,CGGCGTGA,-0.0279
23,AGGGTGCA,-0.23
24,CCTACCAA,0.088
25,CCCTGCGA,-0.293

row,Sequence,PBM E-score
1,CGTCGCAA,0.0231
2,CGTCGGCA,-0.202
3,AGCTGTAA,0.0568
4,CCGGTGCA,-0.0689
5,TATGGTCA,0.00542
6,CTCATATC,-0.0281
7,CCTTTGAG,-0.192
8,CCGGCAGG,-0.127
9,ATTCACGC,-0.112
10,ATGATGCC,-0.0758
11,AACCGGGC,-0.105
12,GAAGCCCA,-0.216
13,GATGTACC,-0.0304
14,GACTACGA,0.0667
15,AGTTATGG,0.115
16,CCCTTCAG,-0.155
17,ATCTCAGA,-0.13
18,CACCGATA,0.04
19,CACCTAAG,-0.0227
20,TATAAGGA,0.219
21,TAAGTAGA,0.162
22,GATAGACC,-0.125
23,CACCAGGC,-0.314
24,ATAAAAAC,0.216
25,CCTCCTAA,-0.0828

row,Sequence,PBM E-score
1,CAGTTTGC,-0.0406
2,CATAAAGG,0.125
3,CAGTCTCC,0.0248
4,ATTGAGCC,-0.00032
5,ACTGGACC,-0.112
6,ATCATGAA,0.0787
7,GAATGTGC,-0.115
8,AAGACATG,-0.19
9,CAGCGCAA,-0.155
10,GGCCCAAA,-0.141
11,CGGGCCAG,-0.142
12,CTTGGGGC,-0.245
13,CGTAAGCA,-0.164
14,AGATAAAC,0.156
15,CAGTCCAG,-0.325
16,AGCCTCTC,-0.217
17,CAGCAGCG,-0.221
18,CCTGCGAC,-0.301
19,CCACACCG,-0.162
20,CCATGTGC,-0.015
21,AATGCAGT,-0.103
22,ACTGGATG,-0.251
23,AGCCAGGG,-0.376
24,GACCCCAA,-0.241
25,AGTTTAAA,0.335

row,Sequence,PBM E-score
1,ATGAGGGA,-0.166
2,AGATGTTG,-0.108
3,AGCTAGCA,-0.14
4,ACAGTTAT,0.0653
5,GCAGAAGC,-0.0924
6,GACGCTCA,-0.191
7,AGGTCGGG,-0.149
8,GAGAGTAA,0.147
9,ACCACGCT,-0.135
10,ATAGGTTG,-0.0917
11,TCACATAA,0.0806
12,ACAATGTA,0.0677
13,ATCGTTAC,0.0774
14,GCCCGAGC,0.0318
15,ATAAAATC,0.162
16,ACGAGGTG,-0.21
17,AGTCACTA,0.0936
18,GCAATACA,0.196
19,CAAGATGC,0.109
20,ATATGCTG,-0.104
21,GCCCGTTA,-0.197
22,CCCCCATA,-0.324

# — the supplement of paper PMC3334620
